Test results from paper PMC4336329 (PLoS ONE, 2015).
Screen size: about 310,000 compounds; about 14,000 (4.5%) showed an effect of 50% or more. The effect is printed as a negative number. The list shows a part of the results.

Target: human ether-à-go-go-related gene (hERG) potassium channel (human, UniProt Q12809)
Test: primary screen, population patch clamp on CHO cells stably expressing hERG
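Also: peak tail current of the secondary pulse compared with the same well before compound.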

Sequence of human ether-à-go-go-related gene (hERG) potassium channel (Q12809 whole entry, looked up): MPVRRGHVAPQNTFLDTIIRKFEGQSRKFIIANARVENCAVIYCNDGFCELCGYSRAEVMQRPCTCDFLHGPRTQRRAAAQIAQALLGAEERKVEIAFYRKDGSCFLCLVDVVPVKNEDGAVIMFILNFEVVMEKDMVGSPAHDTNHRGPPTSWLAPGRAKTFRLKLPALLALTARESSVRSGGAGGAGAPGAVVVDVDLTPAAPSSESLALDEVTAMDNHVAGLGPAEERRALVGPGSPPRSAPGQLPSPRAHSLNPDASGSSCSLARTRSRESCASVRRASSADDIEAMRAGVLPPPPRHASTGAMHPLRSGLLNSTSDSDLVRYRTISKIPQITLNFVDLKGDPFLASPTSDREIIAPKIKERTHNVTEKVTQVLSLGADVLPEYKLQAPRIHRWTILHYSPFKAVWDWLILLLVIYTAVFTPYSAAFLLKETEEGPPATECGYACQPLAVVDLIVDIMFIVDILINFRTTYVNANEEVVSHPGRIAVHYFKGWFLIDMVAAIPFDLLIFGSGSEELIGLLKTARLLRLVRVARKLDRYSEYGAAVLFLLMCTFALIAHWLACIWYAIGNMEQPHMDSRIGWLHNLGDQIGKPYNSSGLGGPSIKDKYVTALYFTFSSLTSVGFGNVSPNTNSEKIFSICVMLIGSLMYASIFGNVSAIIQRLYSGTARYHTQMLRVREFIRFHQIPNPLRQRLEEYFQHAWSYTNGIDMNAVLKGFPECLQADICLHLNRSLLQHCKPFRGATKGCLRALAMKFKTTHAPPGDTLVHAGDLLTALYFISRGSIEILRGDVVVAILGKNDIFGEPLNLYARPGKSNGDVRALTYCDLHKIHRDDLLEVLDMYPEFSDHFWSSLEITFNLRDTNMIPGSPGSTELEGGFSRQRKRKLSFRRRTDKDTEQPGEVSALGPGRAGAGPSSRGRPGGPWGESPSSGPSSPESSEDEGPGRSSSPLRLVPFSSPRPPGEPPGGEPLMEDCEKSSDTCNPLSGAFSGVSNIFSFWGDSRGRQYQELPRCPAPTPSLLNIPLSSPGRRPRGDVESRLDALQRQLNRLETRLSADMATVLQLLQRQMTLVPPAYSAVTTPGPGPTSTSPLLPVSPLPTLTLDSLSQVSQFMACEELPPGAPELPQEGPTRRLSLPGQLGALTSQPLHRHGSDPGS

Compound | hERG current change (%, negative = inhibition) at 10uM [%]
COc1ccccc1NC(=O)c1ccc(-n2cncn2)nc1 | -6.21
NS(=O)(=O)c1ccc(NC(=O)COC(=O)/C(=C/c2cccs2)c2cccs2)cc1 | 3.49
COc1cc(CN2CCN(Cc3ccco3)CC2)cc(OC)c1.O=C(O)C(=O)O | -1.79
O=C(NCc1ccccc1)C1CCCN(S(=O)(=O)c2cccs2)C1 (stereo not drawn) | -0.56
CC(=O)c1cccc(S(=O)(=O)Nc2ccc(N3CCOCC3)cc2)c1 | 12.4
CC(=O)c1ccc(OCC(=O)c2cc(C)n(-c3ccc4c(c3)OCO4)c2C)cc1 | 6.16
Cc1cc(S(=O)(=O)N2CCOCC2)ccc1OCC(=O)N1CCOCC1 | 13.4
C/C(=N\Nc1cc(N2CCOCC2)ncn1)c1ccc(O)cc1 | 7.97
O=C(CN1CCOCC1)NCCc1ccccc1 | 16.4
COC(=O)C1C2C=CC3(CN(c4cccc(Cl)c4)C(=O)C13)O2 (stereo not drawn) | 2.49
Cc1nn(C)c(C)c1NC(=O)CC12CC3CC(CC(C3)C1)C2 | 2.75
CC(C)(C)NC(=O)CN(C(=O)c1snc(C(=O)NC2CCCCC2)c1N)c1ccccc1F | 20.3
Cc1cc(C)nc(NS(=O)(=O)c2ccc(NC(=O)CSc3nc(-c4ccccc4)c(C#N)c(=O)[nH]3)cc2)n1 | 16.5
O=C1N/C(=C/c2ccco2)C(=O)N1Cc1ccccc1F | 5.32
CC(C)c1ccc(CNc2nc3nc4c(c(=O)n3[nH]2)CCC4)cc1 | 3.74
COc1cc(C)c(CN2CCN(c3ccccc3)CC2)cc1C | -30.2
O=C(Nc1ccc2nc(-c3cccs3)c(-c3cccs3)nc2c1)NC1CC1 | 4.84
CC(CN1CCOCC1)OC(=O)CCc1ccccc1 (stereo not drawn) | 11.8
CC(=O)Nc1ccc(S(=O)(=O)NC(C(=O)O)C(C)C)cc1 (stereo not drawn) | -1.28

Compound | hERG current change (%, negative = inhibition) at 10uM [%]
Cc1ccc(S(=O)(=O)Nc2ccc3[nH]ccc3c2)cc1 | -9.71
CC(OC(=O)c1cccc(O)c1)C(=O)N(C)Cc1ccccc1 (stereo not drawn) | 13.2
COc1ccc(Oc2cc(Cl)nc(N)n2)cc1 | 9.99
O=C(Nc1c(C(=O)N2CCOCC2)cnn1-c1ccccc1)c1ccco1 | 9.14
CN(Cc1nccn1C)C(=O)c1cc(COc2ccc3ncccc3c2)on1 | 10.5
Cc1ccccc1-n1c(SCC(=O)N(C)C2CCS(=O)(=O)C2)nc2ccccc2c1=O (stereo not drawn) | 11.6
CCCCOc1ccc(Cl)cc1CSc1nnc(C)n1N | -6
O=S(=O)(/N=C(/Nc1ccccn1)c1ccccc1)c1ccccc1 | 13.3
CC(C)CCNC(=O)CCCCn1c(=O)[nH]c2ccsc2c1=O | -3.35
CN(C)c1ccc(-c2n(C)c3ccccc3[n+]2C)cc1.[Cl-] | -5.53
CCCCc1ccc2[nH]cc(CCN)c2c1.Cl | -9.69
Fc1ccc(N2CCN(Cc3cnc(Oc4ccc(Br)cc4)s3)CC2)cc1 | 13.1
COc1ccc(OC)c(NC(=O)CCN2C(=O)c3ccccc3C2=O)c1 | 19.5
Cc1cc(S(=O)(=O)N2CCC(NC(=O)C34CC5CC(CC(C5)C3)C4)CC2)ccc1-n1cnnn1 | -15.2
O=C1NC2(CCCCCC2)Cc2ccccc21 | -21.2
Cc1ccc(Nc2nc3ccccc3n3nnnc23)cc1 | 24.9
COc1ccc(NC(=O)c2cccc(NS(=O)(=O)c3ccccc3)c2)cc1 | 6.54
Nc1c(N2CCCC2)c2ccccc2oc1=O | 2.82
CC(Oc1cccc(Cl)c1)C(=O)N(C)CC(=O)Nc1ccc(N2CCOCC2)cc1 (stereo not drawn) | 2.36

Compound | hERG current change (%, negative = inhibition) at 10uM [%]
COC(=O)C1=C(C)N(C)C(=S)NC1c1ccc(OC)cc1OC (stereo not drawn) | -13.2
COc1cc(Br)cc(CN2CCN(C/C=C/c3ccccc3)CC2)c1O | -32.1
CCN1C(=O)/C(=C\N2CCN(C)CC2)SC1=S | 4.08
CC(C)C(=O)Nc1cccc(-c2cn3ccccc3n2)c1 | -26
O=C(c1ccc2c(c1)[nH]c(=S)n1c3ccccc3nc21)N1CCN(c2cccc(Cl)c2)CC1 | 8.29
COc1ccc2oc(C(=O)OCC(=O)Nc3ccc(C(=O)N(C)C)cc3)c(C)c2c1 | 5.77
CCOc1ccc2nc(COC(=O)c3cccs3)c(C(=O)c3ccccc3)[n+]([O-])c2c1 | 6.46
Cn1ncc(Br)c1C(=O)NC1C2CC3CC(C2)CC1C3 (stereo not drawn) | 14.4
CC(=O)c1ccc(NC(=O)CN2CCN(S(=O)(=O)c3ccc4ccccc4c3)CC2)cc1 | -20.8
CSc1ccccc1NC(=S)Nc1ccccc1C(F)(F)F | 1.63
COc1ccc(S(=O)(=O)N(CC(=O)Nc2ccc(S(=O)(=O)N3CCOCC3)cc2)c2ccccc2)cc1 | 3.29
NC(=O)c1cc2ccccc2o/c1=N\NC(=O)c1ccco1 | -14
Cl.OC(COC(c1ccc(Cl)cc1)c1ccc(Cl)cc1)CN1CCc2ccccc2C1 (stereo not drawn) | -61.6
OCCNC(=S)NC1CCCCC1 | -6.97
CC(NC(=O)c1ccc(F)cc1)c1nc2ccccc2n1Cc1ccccc1F (stereo not drawn) | 1.15
O=C(CN1C(=O)NC2(CCCCC2)C1=O)N1CCN(S(=O)(=O)c2ccccc2)CC1 | 13.8
CCOc1ccccc1C(=O)OCC(=O)Nc1nnc(-c2ccccc2)o1 | -8.2
COc1ccccc1N(CN1CCCC1=O)C(=O)c1c(F)cccc1F | -2.49
COc1ccc(N2CCN(C(=O)CCCn3c(=O)[nH]c4cc(Cl)ccc4c3=O)CC2)cc1 | 4.16
